Measured values taken from publication PMC4336329 (PLoS ONE, 2015).
Among all 310,000 compounds or so, about 2,200 (0.71%) showed an effect of 50% or more. The effect is printed as a negative number. The list shows a part of the results.

molecular target: human ether-à-go-go-related gene (hERG) potassium channel (human, UniProt Q12809); assay: primary screen, population patch clamp on CHO cells stably expressing hERG
Sequence (Q12809 whole entry, looked up): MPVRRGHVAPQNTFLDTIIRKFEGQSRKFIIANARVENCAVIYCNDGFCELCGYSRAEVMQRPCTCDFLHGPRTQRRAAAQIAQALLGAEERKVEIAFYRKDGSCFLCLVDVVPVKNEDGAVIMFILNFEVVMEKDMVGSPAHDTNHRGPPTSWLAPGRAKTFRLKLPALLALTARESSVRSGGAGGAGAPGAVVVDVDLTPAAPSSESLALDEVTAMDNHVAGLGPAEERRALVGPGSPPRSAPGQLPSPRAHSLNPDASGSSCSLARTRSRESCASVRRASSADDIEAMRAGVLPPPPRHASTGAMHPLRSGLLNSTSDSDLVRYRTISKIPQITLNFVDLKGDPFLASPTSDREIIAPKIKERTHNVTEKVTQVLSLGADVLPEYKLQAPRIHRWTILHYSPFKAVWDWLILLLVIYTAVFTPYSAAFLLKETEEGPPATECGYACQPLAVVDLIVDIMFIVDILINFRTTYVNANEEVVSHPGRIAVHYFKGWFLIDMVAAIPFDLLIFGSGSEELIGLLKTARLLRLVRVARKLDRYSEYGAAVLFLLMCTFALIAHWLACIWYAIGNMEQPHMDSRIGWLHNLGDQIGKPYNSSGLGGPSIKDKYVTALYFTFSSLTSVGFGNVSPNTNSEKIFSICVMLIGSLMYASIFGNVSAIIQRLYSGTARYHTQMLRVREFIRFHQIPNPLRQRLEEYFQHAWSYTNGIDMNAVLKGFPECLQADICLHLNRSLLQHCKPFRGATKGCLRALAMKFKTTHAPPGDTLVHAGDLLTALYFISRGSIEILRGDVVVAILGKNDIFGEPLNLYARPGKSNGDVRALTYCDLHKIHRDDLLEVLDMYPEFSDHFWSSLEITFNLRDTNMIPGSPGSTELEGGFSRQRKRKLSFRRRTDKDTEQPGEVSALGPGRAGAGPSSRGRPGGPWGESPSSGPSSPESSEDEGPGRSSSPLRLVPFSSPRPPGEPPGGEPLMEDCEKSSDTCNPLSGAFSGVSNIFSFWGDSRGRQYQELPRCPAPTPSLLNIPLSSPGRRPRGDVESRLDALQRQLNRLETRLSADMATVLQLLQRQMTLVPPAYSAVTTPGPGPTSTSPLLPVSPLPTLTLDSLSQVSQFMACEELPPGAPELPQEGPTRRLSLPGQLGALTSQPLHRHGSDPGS

Row | Structure (SMILES) | hERG current change (%, negative = inhibition) at 1uM [%]
1 | CC(C)NS(=O)(=O)c1ccc(CCC(=O)N2CCC(C(N)=O)CC2)cc1 | 10.7
2 | O=C(NN=C1CCCC1)c1cc(-c2ccccc2)n[nH]1 | 7.49
3 | CCCC(=O)NCCCc1nc2ccccc2[nH]1 | 22.9
4 | CCC(C)NC(=O)Cn1c(=O)n(CCCCCC(=O)Nc2ccccc2)c(=O)c2sccc21 (stereo not drawn) | 7.46
5 | CCc1ccc(-c2nc3ccc(Br)cc3c(C(=O)O)c2C)s1 | 18.3
6 | CC(C)CCNC(=S)Nc1ccccc1F | -5.96
7 | O=C(CCN1C(=O)c2cccc3cccc(c23)C1=O)N1CCN(Cc2ccc3c(c2)OCO3)CC1 | -7.05
8 | CCN(c1ccc(OC)cc1)S(=O)(=O)c1ccc(-c2ccc(=O)[nH]n2)o1 | 19.1
9 | CC12CCC(=O)N1C(C(=O)Nc1cc(C(F)(F)F)ccc1N1CCCCC1)CS2 (stereo not drawn) | 17.2
10 | Cc1ccc(NC(=S)Nc2ccc3cn[nH]c3c2)cc1 | 9.91
11 | COc1ccc(C(=O)C2CN(c3ccccc3)CC2c2ccc(Cl)cc2)cc1 (stereo not drawn) | 0.206
12 | CCn1cc(C(=O)NCCCOC)c2cc(OC)c(OC)cc2c1=O | 2.85
13 | Cc1c(NS(=O)(=O)c2ccc(Cl)c(C(=O)OC(C)C(=O)N3CCOCC3)c2)c(=O)n(-c2ccccc2)n1C (stereo not drawn) | 5.13
14 | O=C(NC(=S)NCc1cccnc1)c1ccc([N+](=O)[O-])cc1 | -2.83
15 | Cc1ccc(S(=O)(=O)Nc2cccc(C(=O)NCC(c3ccco3)N(C)C)c2)cc1F (stereo not drawn) | 3.32
16 | COc1cc(C2NC(=O)NC(C)=C2C(=O)OC(C)(C)C)ccc1OCC(N)=O (stereo not drawn) | 8.07
17 | O=C(CNC(=O)Cc1ccccc1)N=Nc1c(O)[nH]c2ccccc12 | 13.5
18 | CCC(C)OC(=O)C1=C(C)NC2=C(C(=O)C(C(=O)OC)C(C)C2)C1c1ccc(N(C)C)cc1 (stereo not drawn) | 7.82
19 | O=C(Nc1cccnc1)c1noc2c1CCCC2 | -6.33
20 | COc1ccccc1N1CC(C(=O)Nc2nnc(SCc3ccccn3)s2)CC1=O (stereo not drawn) | 2.91
21 | O=C(NCc1ccncc1)C(=O)NCC1OCCN1S(=O)(=O)c1ccc(Br)cc1 (stereo not drawn) | 10.5
22 | CCOc1ccccc1N1C(=O)c2ccc(C(=O)O)cc2C1=O | 7.81
23 | Cc1cc(-c2nn(-c3ccccc3F)cc2CN2CCC(C(N)=O)CC2)c(C)s1 | 21.1
24 | CC(C)n1cc(C(=O)c2cc(Br)ccc2O)cc(C#N)c1=O | 10.4
